In the antibiotic and cytotoxicity screens of Wong et al. (2023):
Some of the results follow.

Columns and labels:
HSkMC = human skeletal muscle cells; assay: cytotoxicity call (relative viability < 0.9); conditions: 10 µM
HepG2 = assay: cytotoxicity call (relative viability < 0.9); conditions: 10 µM
S. aureus RN4220 = assay: growth inhibition call (relative growth <= 0.2); conditions: 50 µM

SMILES | cytotoxicity call (HSkMC) | cytotoxicity call (HepG2) | growth inhibition call (S. aureus RN4220)
C[C@H]1CN([C@@H](C)CO)C(=O)c2cccc(NC(=O)Nc3cccc4ccccc34)c2O[C@@H]1CN(C)C(=O)Nc1ccc2c(c1)OCO2 | inactive | inactive | inactive
C[C@@H]1CCCCO[C@@H](CN(C)Cc2ccc(C(=O)O)cc2)[C@@H](C)CN([C@@H](C)CO)C(=O)c2cc(NS(=O)(=O)c3cccs3)ccc2O1 | inactive | inactive | inactive
C[C@H]1CN([C@@H](C)CO)C(=O)c2cccc(NS(=O)(=O)c3ccc(F)cc3)c2O[C@@H]1CN(C)C(=O)Nc1cccc2ccccc12 | inactive | inactive | inactive
CCCNC(=O)N(C)C[C@H]1Oc2cc(C#Cc3cccc(F)c3)ccc2S(=O)(=O)N([C@H](C)CO)C[C@@H]1C | inactive | inactive | inactive
C[C@H](CO)N1C[C@H](C)[C@@H](CN(C)Cc2ccccc2)OCc2ccccc2-c2c(n(C)c3ccccc23)C1=O | inactive | active | inactive
COc1ccc(S(=O)(=O)Nc2ccc3c(c2)C(=O)N([C@H](C)CO)C[C@H](C)[C@@H](CN(C)C(=O)Nc2ccccc2)OCCCC[C@H](C)O3)cc1 | inactive | inactive | inactive
COc1ccc(S(=O)(=O)N(C)C[C@@H]2Oc3ccc(NS(=O)(=O)c4ccc(F)cc4)cc3C(=O)N([C@@H](C)CO)C[C@@H]2C)cc1 | inactive | inactive | inactive
C[C@@H]1CN([C@H](C)CO)C(=O)CCCn2cc(nn2)CO[C@H]1CN(C)Cc1ccc(C(=O)Nc2ccccc2N)cc1 | inactive | inactive | inactive
COc1ccc(NC(=O)Nc2cccc3c2O[C@H](CN(C)C(=O)Nc2ccc(C(F)(F)F)cc2)[C@H](C)CN([C@H](C)CO)C3=O)cc1 | inactive | inactive | inactive
